Laboratory results: PubChem BioAssay AID624417 (National Center for Advancing Translational Sciences (NCATS), 2012)
The campaign covered roughly 410,000 compounds. About 6,400 (1.6%) were called active. This list was built around the results that the source calls inconclusive (neither active nor inactive); the mix of calls is not that of the screen. Calls follow the shape of the dose curve; as a rule, active = well fitted inhibition curve with a large enough effect; inconclusive = small, poorly fitted or top-dose-only effect; inactive = no such curve, though single readings can be large or run the other way. Potencies of inconclusive entries are doubtful fits and often do not repeat.

Biological target: Glucagon-like peptide 1 receptor (Homo sapiens) (UniProt P43220)
Test: qHTS of GLP-1 Receptor Inverse Agonists (Inhibition Mode); also: nearly all actives have a fitted effect of over 55% in size
Conditions: HEK293 GLP-1R CRE-luciferase, luminescence, 24 h, GLP-1R form is constitutively active; series mostly up to 38.3 µM
Outline: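 Assay principle: reduced luminescence from a cAMP-responsive reporter in HEK293 cells co-expressing a constitutively active GLP-1R. Conditions: 24 hr compound incubation, 37 deg C, 5% CO2.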
Potency is read from the fitted curve at half-maximal effect; tags tell the direction and shape of the fitted curve.

Sequence of UniProt P43220 (P43220 whole entry, looked up): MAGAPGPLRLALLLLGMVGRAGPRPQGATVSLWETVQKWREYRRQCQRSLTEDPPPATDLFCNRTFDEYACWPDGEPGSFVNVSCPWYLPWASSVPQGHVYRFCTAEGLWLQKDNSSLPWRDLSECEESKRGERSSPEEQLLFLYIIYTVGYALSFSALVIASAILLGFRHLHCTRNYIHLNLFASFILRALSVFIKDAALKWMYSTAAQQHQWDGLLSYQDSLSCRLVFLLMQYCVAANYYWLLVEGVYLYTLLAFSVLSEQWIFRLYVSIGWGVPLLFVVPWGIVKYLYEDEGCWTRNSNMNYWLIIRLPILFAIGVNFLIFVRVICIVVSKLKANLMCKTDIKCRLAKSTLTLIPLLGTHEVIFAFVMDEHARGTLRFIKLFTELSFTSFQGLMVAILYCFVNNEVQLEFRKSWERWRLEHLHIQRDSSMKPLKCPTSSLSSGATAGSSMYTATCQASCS

Potency, active:
CCCCN=C1NN=C(c2ccc3c(c2)OCCO3)CS1 8.91 µM
Cc1noc(C)c1COc1cccc(C(=O)OCCOc2ccc(F)cc2)c1 10 µM

Potency, inconclusive:
NNC(=O)/C(=C\c1ccco1)NC(=O)c1ccco1 4.47 µM [inhibitor, partial curve]
Cc1ccc(C(O)c2ncc(-c3ccc4ccccc4c3)[nH]2)c(C)c1 (stereo not given) 10 µM [inhibitor, partial curve, poor fit]
COc1ccc(N(CC(=O)Nc2ccccc2OC)S(=O)(=O)c2ccccc2)cc1Cl 10 µM [inhibitor, partial curve, poor fit]
CCCC(C(=O)NCCC(C)C)N(Cc1ccccc1)C(=O)c1snc(C(N)=O)c1N (stereo not given) 22.4 µM [inhibitor, single point]
Cc1ccc(C)c(S(=O)(=O)N2CCN(C(=O)c3ccc(OCc4c(C)noc4C)cc3)CC2)c1 15.8 µM [inhibitor, single point]
CC(C)c1ccc(OCc2nc(-c3ccccn3)no2)c(Br)c1 12.6 µM [inhibitor, single point]
CC(C)c1c(C(=O)N/N=C/c2c[nH]c3ccccc23)nnn1-c1nonc1N 1.58 µM [inhibitor, full curve, poor fit]
CCCCCCCCN1C(=O)[C@H](CC(=O)NCc2ccccc2)C[C@@]2(C(=O)OC)CCCCC=C12 10 µM [inhibitor, partial curve, poor fit]
O=C(NNc1ccccc1)Nc1cc(Cl)ccc1Cl 25.1 µM [inhibitor, single point]
Nc1nonc1NN=C1CCCCC1 5.62 µM [inhibitor, partial curve]
COc1ccc(OCC2c3cc(OC)c(OC)cc3CCN2C(=O)COc2ccc(Cl)cc2Cl)cc1 (stereo not given) 28.2 µM [inhibitor, single point]
CN(C)CCCN(C(=O)c1ccc(S(=O)(=O)N(C)C)cc1)c1nc2cc3c(cc2s1)OCO3 11.2 µM [inhibitor, partial curve]
COc1ccc(-c2cc(C)nc3c(-c4ccccc4)cnn23)cc1 11.2 µM [inhibitor, partial curve, poor fit]
CC(C)c1ccc2occ(CC(=O)Nc3ccccc3Cl)c2c1 28.2 µM [inhibitor, single point]
COc1ccc(NC(=O)C2(C)Cc3c(-c4ccc5c(c4)OCO5)ccnc3O2)cn1 (stereo not given) 1.78 µM [inhibitor, full curve, poor fit]
CC(C)NC(=O)c1ccc(COc2cccc3ccccc23)o1 12.6 µM [inhibitor, single point]
CSc1ccccc1NC(=S)NCc1ccc(Cl)cc1 28.2 µM [inhibitor, single point]
Cc1ccc(-c2csc(NC(=O)C[n+]3cc(-c4ccc(C)cc4)n4c3CCC4)n2)cc1 28.2 µM [inhibitor, single point]
Cc1ccc(-c2nc3cc(C)c(Br)c(C)n3c2Cc2ccccc2)cc1 2.51 µM [inhibitor, full curve]
Cc1ccc(Cc2cnc(NC(=O)C3CCCO3)s2)cc1 (stereo not given) 14.1 µM [inhibitor, single point]
CCCn1c(SCC(=O)C(C)(C)C)nc2ccccc21 3.16 µM [inhibitor, partial curve, poor fit]
CCN(CC)CCCNC(=O)CSc1nc2nc(C)c(Cc3c(F)cccc3Cl)c(C)n2n1 10 µM [inhibitor, single point]
O=c1[nH]c(/C=C/c2ccc(Cl)cc2Cl)c([N+](=O)[O-])c(=O)[nH]1 10 µM [inhibitor, single point]
CCOC(=O)C1=CN(Cc2ccc(Br)cc2)S(=O)(=O)N(C)C1C (stereo not given) 10 µM [inhibitor, partial curve, poor fit]
O=C(CCS(=O)(=O)c1ccccc1)Nc1nncs1 12.6 µM [inhibitor, single point]
Cc1ccc(-c2nnc(Nc3cccc(O)c3)c3ccccc23)cc1S(=O)(=O)N1CCCCC1 10 µM [inhibitor, partial curve, poor fit]
Cc1ccccc1-c1nc(CS(=O)(=O)CC(=O)NCc2ccc(F)cc2)c(C)o1 14.1 µM [inhibitor, partial curve, poor fit]
C=CCn1c(SCC(=O)NC2CCCCC2)nnc1C1CCCCC1 22.4 µM [inhibitor, partial curve, poor fit]
CCOc1ccc(OCC)c(NC(=O)c2csc3c2CCCC3)c1 28.2 µM [inhibitor, single point]
O=C1CCC(C(=O)OC(C(=O)Nc2ccc([N+](=O)[O-])cc2Br)c2ccccc2)=NN1 (stereo not given) 28.2 µM [inhibitor, single point]
CC(c1ccccc1)N1C(=O)c2ccccc2C1(O)Cc1ccccc1 (stereo not given) 11.2 µM [inhibitor, single point]
CN(C)CCOc1ccccc1Cc1ccccc1 7.08 µM [inhibitor, partial curve, poor fit]
CCN(CC(=O)Nc1ccc(OC)cc1)C(=O)c1cc2c(s1)CCCCC2 22.4 µM [inhibitor, partial curve, poor fit]
Cc1ccc(NC(=S)Nc2ccccn2)cc1C 3.98 µM [inhibitor, full curve, poor fit]
CCCc1nc(SCc2ccccc2Cl)n[nH]1 31.6 µM [inhibitor, partial curve, poor fit]
CC(C)CN(CC(C)C)C(=S)Nc1ccc(Cl)cc1 17.8 µM [inhibitor, partial curve, poor fit]
COc1ccc(N(CC(=O)NC2CC3CCC2C3)S(=O)(=O)c2ccccc2)cc1Cl (stereo not given) 28.2 µM [inhibitor, single point]
Cc1ccccc1OC(C)c1nc(-c2ccccc2)no1 (stereo not given) 28.2 µM [inhibitor, single point]
O=C(NCc1ccc2c(c1)OCO2)c1ccc(Cl)c(S(=O)(=O)NCc2ccccc2)c1 22.4 µM [inhibitor, single point]
Cc1cccc(N(C)Cc2nnc(-c3cccc(Br)c3)o2)c1 15.8 µM [inhibitor, single point]
CCOc1ccc(CNC(=O)C2=Cc3cc(Br)ccc3OC2)cc1OC 28.2 µM [inhibitor, single point]
Cc1ccc(C(=O)C2CCN(CC(=O)NCc3ccc(F)cc3)CC2)cc1 14.1 µM [inhibitor, single point]
CC/C(=N\NC(=O)c1nnn(-c2nonc2N)c1-c1cccc(OC)c1)c1ccc(C)cc1 31.6 µM [inhibitor, partial curve, poor fit]
CC1/C(=C\c2ccc(Cl)cc2)C(=O)C2CC1C2(C)C (stereo not given) 28.2 µM [inhibitor, single point]
Cc1ccc(C(=O)Nc2sc3c(c2C(=O)NCc2ccco2)CCCC3)cc1 11.2 µM [inhibitor, single point]
Cc1ccn2c(-c3csc(NCc4ccco4)n3)c(C)nc2c1 17.8 µM [inhibitor, single point]
Cn1cc(SCC(=O)Nc2ccc3c(c2)OCO3)c2ccccc21 10 µM [inhibitor, partial curve, poor fit]
COc1ccc(NS(=O)(=O)c2cc(NC(=O)CC(C)(C)C)ccc2N2CCCC2)cc1 22.4 µM [inhibitor, single point]
COc1cc(C(C(=O)NC(C)(C)C)N(C(=O)CNC(=O)c2cccs2)c2ccc(C(C)C)cc2)cc(OC)c1OC (stereo not given) 8.91 µM [inhibitor, partial curve, poor fit]

Potency, inactive:
O=C(/C(=C(\O)c1ccccc1)c1ncc[nH]1)c1ccccc1
CCOc1ccccc1N(CC(=O)NC1CCCC1)C(=O)CNC(=O)c1cccs1
CC1=C(C(N)=O)C(c2cccc(C)c2)n2nc(-c3cccc(C)c3)nc2N1 (stereo not given)
COc1ccc(Cn2ccc3nc(C)c(C(=O)N4CCN(c5ccccc5OC)CC4)cc3c2=O)cc1
CCOC(=O)N1CCN(C(=O)c2ccc(NS(=O)(=O)c3ccc(F)cc3)cc2)CC1
Cc1c(CC(=O)N2CCC(C(N)=O)CC2)c(=O)oc2cc3c(cc12)CCC1(CCCCC1)O3
CCOC(=O)C(=CNc1ccc2c(c1)nnn2-c1ccc(Cl)cc1)C(=O)OCC
Cc1ccc(N(Cc2cc3ccccc3[nH]c2=O)C(=O)c2cccc(Cl)c2)cc1
O=C(C[C@@H]1C/C=C\C[C@@H](Cc2ccc(F)cc2)C(=O)OCCNC1=O)NCCO
COc1ccc(C(=O)NCC(c2ccco2)N(C)C)cc1S(=O)(=O)NCc1ccc(Cl)cc1 (stereo not given)
CN(C(=O)c1ccc(Br)cc1)C1CCS(=O)(=O)C1 (stereo not given)
COc1ccc(NC(=O)c2cc(C)nc3c2c(C)nn3-c2cccc(Cl)c2C)c(OC)c1
Cc1ccc(Cn2c(=O)n(-c3ccc(C)c(C)c3)c(=O)c3c(C)c(C)sc32)cc1
COc1ccc2c(CC(=O)N3CCc4ccccc43)coc2c1
